In article PMC4336329 (PLoS ONE, 2015):
Out of some 310,000 compounds screened, about 14,000 (4.5%) showed an effect of 50% or more. Effects have a minus sign here. This is one part of the list.

target: human ether-à-go-go-related gene (hERG) potassium channel (human, UniProt Q12809); experiment: primary screen, population patch clamp on CHO cells stably expressing hERG
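Note: peak tail current of the secondary pulse compared with the same well before compound.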

Chain of human ether-à-go-go-related gene (hERG) potassium channel (Q12809 whole entry, looked up): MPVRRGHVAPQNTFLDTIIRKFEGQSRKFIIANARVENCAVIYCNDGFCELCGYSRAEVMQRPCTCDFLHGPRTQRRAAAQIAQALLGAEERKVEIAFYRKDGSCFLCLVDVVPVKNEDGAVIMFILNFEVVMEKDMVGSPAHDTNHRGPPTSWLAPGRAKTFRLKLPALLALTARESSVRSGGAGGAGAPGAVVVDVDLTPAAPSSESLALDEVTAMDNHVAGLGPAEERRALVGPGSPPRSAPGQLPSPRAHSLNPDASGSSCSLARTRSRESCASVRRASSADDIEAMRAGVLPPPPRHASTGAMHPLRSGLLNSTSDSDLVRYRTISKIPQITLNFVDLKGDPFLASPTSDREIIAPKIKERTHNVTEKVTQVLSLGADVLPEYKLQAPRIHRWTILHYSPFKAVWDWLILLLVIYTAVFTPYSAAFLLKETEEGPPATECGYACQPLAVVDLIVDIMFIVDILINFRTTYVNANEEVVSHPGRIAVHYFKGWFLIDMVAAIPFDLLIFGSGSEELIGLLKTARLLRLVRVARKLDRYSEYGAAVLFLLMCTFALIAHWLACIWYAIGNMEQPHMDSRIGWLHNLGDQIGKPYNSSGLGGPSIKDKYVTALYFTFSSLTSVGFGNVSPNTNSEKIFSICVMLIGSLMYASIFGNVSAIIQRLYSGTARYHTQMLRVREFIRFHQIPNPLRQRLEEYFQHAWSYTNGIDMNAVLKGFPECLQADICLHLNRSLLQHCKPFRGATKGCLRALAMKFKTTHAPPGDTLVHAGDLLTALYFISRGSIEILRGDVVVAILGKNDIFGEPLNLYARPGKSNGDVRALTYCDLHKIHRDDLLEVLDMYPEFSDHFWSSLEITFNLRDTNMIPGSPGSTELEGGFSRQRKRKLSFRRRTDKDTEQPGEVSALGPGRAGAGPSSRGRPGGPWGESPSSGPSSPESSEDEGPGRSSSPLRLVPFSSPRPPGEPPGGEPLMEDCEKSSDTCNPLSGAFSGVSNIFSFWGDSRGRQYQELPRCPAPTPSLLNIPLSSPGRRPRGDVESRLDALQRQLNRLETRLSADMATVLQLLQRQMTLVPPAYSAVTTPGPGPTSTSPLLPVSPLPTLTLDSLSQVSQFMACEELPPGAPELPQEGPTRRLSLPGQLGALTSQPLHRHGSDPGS

Q: `CCc1ccc(NC(=O)C2CCN(S(=O)(=O)c3c(C)noc3C)CC2)cc1` was tested. Which “hERG current change (%, negative = inhibition) at 10uM” value did it give?
A: 4.09%

Q: Which “hERG current change (%, negative = inhibition) at 10uM” value does the source give for `CCc1ccc(N2C(=O)CC(=O)NC2=O)cc1` here?
A: 8.54%

Q: How did the “hERG current change (%, negative = inhibition) at 10uM” value turn out when `Cc1cccc(N2CCN(C(=O)c3cccc(S(=O)(=O)N4CCc5ccccc5C4)c3)CC2C)c1` (stereo not shown) was run?
A: -1.26%

Q: For `COc1ccc(NC(=O)COC(=O)CCc2cc(OC)c(OC)c(OC)c2)c([N+](=O)[O-])c1`, which “hERG current change (%, negative = inhibition) at 10uM” value is on record?
A: -3.66%

Q: With `Br.O=C(O)Cc1sc(N/N=C\c2ccccc2)nc1-c1ccccc1` as the compound, how does the “hERG current change (%, negative = inhibition) at 10uM” value read?
A: 7.37%

Q: `COc1cc(OC)c(NS(=O)(=O)c2cc(C(=O)OC(C)C(=O)NC3CC3)c(Cl)cc2Cl)cc1Cl` (stereo not shown) was tested. Which “hERG current change (%, negative = inhibition) at 10uM” value did it give?
A: -37%

Q: Which “hERG current change (%, negative = inhibition) at 10uM” value does the source give for `O=C1CC(N2CCOCC2)C(=O)N1c1ccccc1Cl` (stereo not shown) here?
A: 4.97%

Q: With `CS(=O)(=O)c1ccc(N2CCN(S(=O)(=O)c3cccs3)CC2)c([N+](=O)[O-])c1` as the compound, how does the “hERG current change (%, negative = inhibition) at 10uM” value read?
A: -67.1%

Q: For `O=C1C2C3CCCC3=C3CCCC3C2C(=O)N1c1ccc(Cl)cc1` (stereo not shown), which “hERG current change (%, negative = inhibition) at 10uM” value is on record?
A: 6.23%

Q: With `CC(C)=CCN1CCN(Cc2ccc(N3CCNC3=O)cc2)CC1CCO` (stereo not shown) as the compound, how does the “hERG current change (%, negative = inhibition) at 10uM” value read?
A: 13.9%

Q: `C=CCOn1c(=O)c(-c2cccs2)[n+]([O-])c2ccccc21` was tested. Which “hERG current change (%, negative = inhibition) at 10uM” value did it give?
A: -11.1%

Q: `CCN(CC)c1ccc(NC(=O)COc2ccc(N(C)S(=O)(=O)c3cccs3)cc2)cc1` was tested. Which “hERG current change (%, negative = inhibition) at 10uM” value did it give?
A: 8.15%

Q: With `COCCn1c(SCC(=O)Nc2cccc(OC)c2)nnc1-c1ccc(Cl)cc1` as the compound, how does the “hERG current change (%, negative = inhibition) at 10uM” value read?
A: -43.7%

Q: For `Cc1ccc2c(c1)/C(=N/OC(=O)c1ccc(F)cc1)CCS2`, which “hERG current change (%, negative = inhibition) at 10uM” value is on record?
A: 6.83%

Q: Which “hERG current change (%, negative = inhibition) at 10uM” value does the source give for `Cc1ccc(C(=O)N[C@H](C(=O)Nc2cc(Cl)cc(Cl)c2)C(C)C)cc1` here?
A: 12.1%

Q: `CNc1nc(Nc2ccccc2)nc(OCC(F)(F)F)n1` was tested. Which “hERG current change (%, negative = inhibition) at 10uM” value did it give?
A: -10.2%

Q: `CCN1C(=O)c2cccc3c(S(=O)(=O)NCc4ccco4)ccc1c23` was tested. Which “hERG current change (%, negative = inhibition) at 10uM” value did it give?
A: -11.2%

Q: For `Cc1[nH]nc(SCC(=O)Nc2ccc(C#N)cc2)c1[N+](=O)[O-]`, which “hERG current change (%, negative = inhibition) at 10uM” value is on record?
A: 3.18%

Q: With `COc1cc(/C=C2\SC(=O)N(CC(=O)Nc3cccc(C)c3)C2=O)ccc1OC(C)C(=O)O` (stereo not shown) as the compound, how does the “hERG current change (%, negative = inhibition) at 10uM” value read?
A: 7.11%

Q: For `CCOC(=O)C(=O)Nc1cc(C)on1`, which “hERG current change (%, negative = inhibition) at 10uM” value is on record?
A: 26.8%

Q: Which “hERG current change (%, negative = inhibition) at 10uM” value does the source give for `Cc1ccc(S(=O)(=O)N/N=C/c2cccs2)cc1` here?
A: 9.65%

Q: For `Cc1c(F)cccc1NS(=O)(=O)c1ccc2c(c1)c(C)cc(=O)n2C`, which “hERG current change (%, negative = inhibition) at 10uM” value is on record?
A: -8.65%

Q: `O=C(COc1ccc(-n2cnnn2)cc1)Nc1cccc(Cl)c1Cl` was tested. Which “hERG current change (%, negative = inhibition) at 10uM” value did it give?
A: 16.8%

Q: `CN(CCCNC(=O)CCCOc1cc(=O)n(C)c2ccccc12)Cc1ccccc1` was tested. Which “hERG current change (%, negative = inhibition) at 10uM” value did it give?
A: -11%

Q: `O=C(NCCc1ccccc1)c1ccc(OCCOc2ccccc2)cc1` was tested. Which “hERG current change (%, negative = inhibition) at 10uM” value did it give?
A: 18.6%

Q: With `Cc1ccc(-c2nnn(CCOc3cccc(Br)c3)n2)cc1` as the compound, how does the “hERG current change (%, negative = inhibition) at 10uM” value read?
A: 2.7%

Q: For `CC(C)CCNC(=O)C(c1ccncc1)N(CC1CCCO1)C(=O)Cn1nnc(-c2ccc(F)cc2)n1` (stereo not shown), which “hERG current change (%, negative = inhibition) at 10uM” value is on record?
A: -64.8%

Q: `Cc1ccc(N=Cc2c(C)[nH]n(-c3ccccc3)c2=O)nc1` was tested. Which “hERG current change (%, negative = inhibition) at 10uM” value did it give?
A: -9.76%

Q: With `CCOC(=O)NNc1ccc2nonc2c1[N+](=O)[O-]` as the compound, how does the “hERG current change (%, negative = inhibition) at 10uM” value read?
A: 10.1%

Q: Which “hERG current change (%, negative = inhibition) at 10uM” value does the source give for `Cc1ccc(NC(=O)c2cccc3cccnc23)cc1` here?
A: 8.79%

Q: `CCC(N=c1cc(-c2ccc(OC)c(OC)c2)oc2ccc(C)cc12)C(=O)O` (stereo not shown) was tested. Which “hERG current change (%, negative = inhibition) at 10uM” value did it give?
A: -20.7%

Q: How did the “hERG current change (%, negative = inhibition) at 10uM” value turn out when `CCCn1nc(C(=O)N2CC(=O)Nc3ccccc32)c2ccccc2c1=O` was run?
A: 0.424%

Q: Which “hERG current change (%, negative = inhibition) at 10uM” value does the source give for `Cc1ccc(F)cc1S(=O)(=O)NCc1ccc(N2CCN(C)CC2)cc1` here?
A: -20.8%

Q: For `COc1ccc([C@H]2CC(=O)C=C(c3ccc(Cl)c(C(F)(F)F)c3)C2)cc1`, which “hERG current change (%, negative = inhibition) at 10uM” value is on record?
A: -6.76%

Q: With `Cc1ccc(N(CC(=O)NCCSc2nc3ccccc3s2)S(=O)(=O)c2ccccc2)c(C)c1` as the compound, how does the “hERG current change (%, negative = inhibition) at 10uM” value read?
A: -42.1%

Q: Which “hERG current change (%, negative = inhibition) at 10uM” value does the source give for `CCN(CC)CCCNC(=O)CCC(=O)NNc1nc2ccccc2c2nc(C)nn12` here?
A: 7.92%

Q: `CC(=O)c1ccc(OCC(=O)NCc2ccc(F)cc2)cc1` was tested. Which “hERG current change (%, negative = inhibition) at 10uM” value did it give?
A: -11.5%

Q: How did the “hERG current change (%, negative = inhibition) at 10uM” value turn out when `CC1CN(S(=O)(=O)c2cccc(C(=O)OC(C)C(=O)NC3CCCCC3C)c2)CC(C)O1` (stereo not shown) was run?
A: -25.8%

Q: Which “hERG current change (%, negative = inhibition) at 10uM” value does the source give for `COCc1cc(C)nc(SCC(=O)Nc2ccccc2C)c1C#N` here?
A: -2.77%

Q: How did the “hERG current change (%, negative = inhibition) at 10uM” value turn out when `OCCn1ccc(-c2ccccc2OCc2ccc(F)cc2)n1` was run?
A: 4.9%

Q: For `COC(=O)C(=O)/C=C(\O)c1c(C)cc(C)cc1C`, which “hERG current change (%, negative = inhibition) at 10uM” value is on record?
A: 14.9%

Q: For `S=C(NCCNC(=S)Nc1ccccc1)Nc1ccccc1`, which “hERG current change (%, negative = inhibition) at 10uM” value is on record?
A: 16%

Q: How did the “hERG current change (%, negative = inhibition) at 10uM” value turn out when `CCOc1cc(/C=N/NC(=O)c2ccc(NC(=O)C3CC3)cc2)ccc1O` was run?
A: -0.392%
